Target: T1, human RSPO3 (recombinant, R&D Systems) (human, UniProt Q9BXY4 22-272)
T1 sequence: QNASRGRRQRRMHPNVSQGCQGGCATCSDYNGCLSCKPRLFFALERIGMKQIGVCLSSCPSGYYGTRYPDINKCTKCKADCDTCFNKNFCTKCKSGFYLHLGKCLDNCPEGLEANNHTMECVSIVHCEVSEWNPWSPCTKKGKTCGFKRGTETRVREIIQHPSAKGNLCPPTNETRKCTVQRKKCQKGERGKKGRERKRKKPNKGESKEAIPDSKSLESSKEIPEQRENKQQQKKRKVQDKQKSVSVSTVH
Experiment: SPR (Biacore 2000), antibody captured by goat anti-human IgG on CM5 chip, human RSPO3 injected 300-37.5 nM
Protocol: The method used was different than described in Example 3. A goat anti-human IgG antibody was coupled to a carboxymethyl-dextran (CM5) SPR chip using standard amine-based chemistry (NHS/EDC) and blocked with ethanolamine. Antibodies (purified antibody or culture supernatant) were diluted to a concentration of 10 μg/ml in HBS-P-BSA (0.01M HEPES pH7.4, 0.15M NaCl, 0.005% v/v Polysorbate 20, 100 μg/ml BSA) and captured onto the chip via the anti-human IgG antibody. […] After each antigen injection 5 μl of 100 mM H₃PO₄ was injected to remove the antigen-antibody complex and a subsequent injection performed. Kinetic data were collected over time and were fit using the simultaneous global fit equation to yield affinity constants (KD values) for each antibody (Table 4).

- Kd: 0.876 nM
B1: humanized anti-RSPO3 antibody h131R008 (antibody, human IgG1, kappa)
heavy: QVQLVQSGAEVKKPGASVKVSCKASGYTFTDYSIHWVRQAPGQGLEWIGYIYPSNGDSGYNQKFKNRVTMTRDTSTSTAYMELSRLRSEDTAVYYCATYFANNFDYWGQGTTLTVSSASTKGPSVFPLAPSSKSTSGGTAALGCLVKDYFPEPVTVSWNSGALTSGVHTFPAVLQSSGLYSLSSVVTVPSSSLGTQTYICNVNHKPSNTKVDKRV[… human IgG1 Fc …]
light: DIVLTQSPASLAVSLGQRATITCKASQSVDYDGDSYMNWYQQKPGQPPKLLIYAASNLESGIPARFSGSGSGTDFTLTINPVEAEDVATYYCQQSNEDPLTFGAGTKLELKRTVAAPSVFIFPPSDEQLKSGTASVVCLLNNFYPREAKVQWKVDNALQSGNSQESVTEQDSKDSTYSLSSTLTLSKADYEKHKVYACEVTHQGLSSPVTKSFNRGEC
notes: IgG1; also called h131R008 (IgG1)
